# Source: article PMC4336329 (PLoS ONE, 2015)
# In all, about 310,000 compounds went through this assay and about 14,000 (4.5%) showed an effect of 50% or more. Effects have a minus sign here. This is one part of the list.
# Target: human ether-à-go-go-related gene (hERG) potassium channel (human, UniProt Q12809)
# Assay: primary screen, population patch clamp on CHO cells stably expressing hERG
# 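Note: peak tail current of the secondary pulse compared with the same well before compound.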
# Sequence of human ether-à-go-go-related gene (hERG) potassium channel (Q12809 whole entry, looked up): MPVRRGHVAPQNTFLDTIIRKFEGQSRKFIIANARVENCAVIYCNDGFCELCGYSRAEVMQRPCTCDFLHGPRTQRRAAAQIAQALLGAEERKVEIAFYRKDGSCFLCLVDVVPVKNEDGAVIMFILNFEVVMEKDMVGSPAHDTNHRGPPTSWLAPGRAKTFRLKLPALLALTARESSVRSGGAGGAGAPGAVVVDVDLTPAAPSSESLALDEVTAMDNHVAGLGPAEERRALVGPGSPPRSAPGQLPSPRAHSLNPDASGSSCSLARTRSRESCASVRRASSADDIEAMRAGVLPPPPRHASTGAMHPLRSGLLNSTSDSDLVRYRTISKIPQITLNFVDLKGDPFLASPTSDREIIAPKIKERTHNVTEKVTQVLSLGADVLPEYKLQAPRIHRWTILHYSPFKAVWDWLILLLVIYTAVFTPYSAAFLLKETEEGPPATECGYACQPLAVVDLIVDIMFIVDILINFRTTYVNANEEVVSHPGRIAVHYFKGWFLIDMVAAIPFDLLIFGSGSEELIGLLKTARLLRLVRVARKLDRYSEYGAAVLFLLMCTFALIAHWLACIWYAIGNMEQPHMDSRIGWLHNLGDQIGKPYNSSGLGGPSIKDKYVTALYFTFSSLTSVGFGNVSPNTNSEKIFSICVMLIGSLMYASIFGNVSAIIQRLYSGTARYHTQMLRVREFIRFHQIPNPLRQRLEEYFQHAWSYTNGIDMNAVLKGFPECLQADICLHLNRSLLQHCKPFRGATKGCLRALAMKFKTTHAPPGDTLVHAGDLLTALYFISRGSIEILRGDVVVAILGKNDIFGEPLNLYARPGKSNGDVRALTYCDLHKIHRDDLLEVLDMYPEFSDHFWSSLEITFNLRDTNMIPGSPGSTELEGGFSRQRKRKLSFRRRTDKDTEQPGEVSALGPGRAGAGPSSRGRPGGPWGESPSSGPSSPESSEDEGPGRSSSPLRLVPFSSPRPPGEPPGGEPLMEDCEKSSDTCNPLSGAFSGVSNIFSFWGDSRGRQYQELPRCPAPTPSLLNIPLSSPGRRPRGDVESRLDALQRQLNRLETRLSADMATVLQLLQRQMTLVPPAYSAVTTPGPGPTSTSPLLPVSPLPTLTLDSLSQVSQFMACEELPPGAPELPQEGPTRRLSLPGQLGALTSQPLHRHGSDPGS
row,SMILES,"hERG current change (%, negative = inhibition) at 10uM [%]"
1,NS(=O)(=O)c1ccc(NS(=O)(=O)c2ccc3c(c2)OCCO3)cc1,20.1
2,CC(=O)Nc1ccc(S(=O)(=O)NCCC(=O)OCC(=O)NNC(=O)c2ccccc2)cc1,-5.23
3,Cc1ccc(C(=O)OC(C)C(=O)NC2CCCCC2C)cc1S(=O)(=O)N1CCOCC1 (stereo not shown),-5.61
4,CCOC(=O)CC1=C(C(=O)OCC)C2(C(=O)Nc3ccccc32)C(C#N)=C(N)O1 (stereo not shown),-0.505
5,COc1ccc(C(=O)N/N=C/c2ccc(OC)c(OS(=O)(=O)c3ccccc3)c2)cc1,6.52
6,CC(=O)Nc1cccc(C(=O)N/N=C/c2c[nH]c3ccccc23)c1,13.8
7,COCC(C)NC(=O)c1cc(S(=O)(=O)N2CCCCC2)ccc1N1CCOCC1 (stereo not shown),7.88
8,CC(C)c1nc2oc3c(NCc4cccnc4)ncnc3c2c2c1CCC2,-50.2
9,CCC(C)[C@H](NC(=O)[C@@H]1Cc2ccccc2CN1C(=O)OC(C)(C)C)C(=O)NCC1CCC(C(=O)O)CC1 (stereo partly shown),7.33
10,Cc1ccccc1CCN(C(=O)c1csnn1)C(C(=O)NC1CCCC1)c1ccncc1 (stereo not shown),-42.1
11,NS(=O)(=O)c1ccc(CCNC(=O)c2ccc([N+](=O)[O-])cc2[N+](=O)[O-])cc1,3.48
12,O=[N+]([O-])c1cnc2nc(-c3ccncc3)nn2c1[O-].[Na+],47.9
13,Cc1c(NC(=O)c2cc(-c3ccc(Cl)s3)nc3ccccc23)c(=O)n(-c2ccccc2)n1C,-10.8
14,CC(=O)ON1C(C)(C)Cc2noc(N)c2C1(C)C,10.2
15,O=C(NC(=S)Nc1ccc(F)cc1)C1CCCCC1,13.4
16,COc1ccc(-c2noc(CNS(=O)(=O)c3ccc(NC(C)=O)cc3)n2)cc1,8.15
17,COc1ccc(/C=C2\Oc3cc(OCC(=O)N4CCC[C@H]4C(=O)O)ccc3C2=O)c(OC)c1,4.43
18,COc1ccc(COCCN2CCN(S(=O)(=O)c3ccc(C)cc3)CCC2=O)cc1,-16
19,O=C(O)c1ccc(-c2nnc(-c3ccccc3)o2)cc1,5.3
20,CN1C(=O)[C@H]2[C@@H](/C=C/c3ccccc3)N3C(=O)CN(Cc4ccccn4)C(=O)[C@@]3(C)[C@H]2C1=O,14.2
21,Cn1c(CCNC(=O)c2ccco2)nc2cc(NC(=O)C3CCCCC3)ccc21,-22.7
22,Cn1cc(-c2ccccc2C(N)=O)c(=O)c2ccccc21,5.37

row,SMILES,"hERG current change (%, negative = inhibition) at 10uM [%]"
1,CC(C)N1CCC(N2CCN(Cc3ccc(Oc4ncccn4)cc3)CC2CCO)CC1 (stereo not shown),23.9
2,COc1ccc(Cc2nnc(Nc3ccc(Cl)cc3)[nH]c2=O)cc1,21.3
3,CNC(=O)CN(C1CCCCC1)S(=O)(=O)c1ccc(OC)c(Cl)c1,12.5
4,CC(C)(C)C1CCc2onc(C(=O)Nc3ccc(F)cc3F)c2C1 (stereo not shown),0.544
5,Cc1ccc[n+](CC(=O)Nc2cc(C(F)(F)F)ccc2N2CCOCC2)c1.[Cl-],35.9
6,CCS(=O)(=O)Nc1ccc(-c2nnc(SCC(=O)c3cccc(OC)c3)o2)cc1,9.41
7,Cc1cccc(NC(=O)c2ccc([N+](=O)[O-])s2)c1C,10.1
8,CCn1cc(CNC(=O)c2ccc(Cl)c([N+](=O)[O-])c2)c(C)n1,-6.98
9,Cc1c(Br)c([N+](=O)[O-])nn1C(C)C(=O)Nc1nccs1 (stereo not shown),-4.3
10,CC(C)n1c(SCC(=O)Nc2ccc(F)cc2)nnc1C1CC1,-50.1
11,COc1ccc(NC(=O)CSc2nc3c(c(=O)n2-c2ccccc2)SCC3)c(OC)c1,-4.61
12,O=C(NN1C(=O)c2ccccc2NC1c1ccc([N+](=O)[O-])o1)c1ccccc1 (stereo not shown),-9.78
13,O=C(NCC(=O)N1CCN(Cc2ccccc2)CC1)c1ccc(Br)cc1,-53.5
14,Nc1ccccc1-n1c(=O)n(Cc2ccccc2F)c(=O)c2[nH]cnc21,12.2
15,Cc1cccc([C@H](NC(=O)OC(C)(C)C)C(=O)OC(C)(C)C)c1,-2.76
16,CC(C)c1cccc(C(C)C)c1NC(=O)CCN1C(=O)NC2(CCCC2)C1=O,3.24
17,CC(C)(Oc1ccc(Cl)cc1)C(=O)O,18.4
18,Cc1ccc(NC(=O)Cn2nnc3ccccc32)cc1,12.1
19,Cc1ccc(NC(=O)c2cccc(NC(=O)CCC(=O)O)c2)cc1C,26
20,CCOC(=O)C1=C(C)OC(N)=C(C#N)C1c1cc(C)sc1C (stereo not shown),-25.5
21,Cc1c(=O)n(OCc2ccccn2)c2ccccc2[n+]1[O-],10.9
22,CCOc1ccc(C(=O)/C=C/c2ccc(OC)c(OC)c2)cc1,3.72

row,SMILES,"hERG current change (%, negative = inhibition) at 10uM [%]"
1,Cn1cccc1Cc1nnc(SCC(=O)Nc2ccc3c(c2)OCO3)n1-c1ccc(F)cc1,-11
2,COc1ccc2c(CC(=O)OCC(=O)Nc3ccc4c(c3)OCO4)coc2c1,-8.08
3,CC(=O)NS(=O)(=O)c1ccccc1,9.31
4,COc1cccc(CN2CCNC(=O)C2CC(=O)NCc2cc(C(C)C)no2)c1 (stereo not shown),6.71
5,CC(=O)N1CC(=O)N(c2ccccc2)C1=O,11.5
6,CC(=O)c1ccc(NC(=O)CCC(=O)N2CC(C)Oc3ccc(C)cc32)cc1 (stereo not shown),4.13
7,CCCCC(C(=O)NC1CCCC1)N(Cc1ccco1)C(=O)Cn1nnc(-c2ccc(F)cc2)n1 (stereo not shown),-28.8
8,CCN(CC)S(=O)(=O)c1ccc(OCC(=O)NCc2ccco2)cc1,-0.226
9,CCOC(=O)c1ccc2c(c1)sc(=NC(=O)c1ccco1)n2CCOC,1.55
10,CCOC(=O)c1ccccc1NC(=O)c1cccc2c1C(=O)N(C1CCN(C(=O)OCC)CC1)C2,-30.4
11,O=S1(=O)N=C(Nc2ccc(O)cc2)c2ccccc21,31.9
12,Cc1ccc([N+](=O)[O-])cc1NC(=S)NC(=O)C(C)(C)C,3.44
13,CCC(C)NC(=O)CN1C(=O)C(CC)Sc2ccccc21 (stereo not shown),-9.34
14,CC(Sc1nnc(COc2ccccc2)n1Cc1ccccc1)C(=O)O (stereo not shown),17
15,CCC(=O)NC(Nc1c(C)n(C)n(-c2ccccc2)c1=O)C(Cl)(Cl)Cl (stereo not shown),4.98
16,COc1ccc(C(=O)NCCSC2CCCCC2)cc1,-15.8
17,Cc1ccc(NCC(=O)c2ccccc2)cc1Cl,12.3
18,Cc1cc(CO)nn1-c1ccc([N+](=O)[O-])cc1,16.3
19,Cc1cccc(NC(=O)c2ccc(S(=O)(=O)N(C)CC3CCCO3)cc2)c1C (stereo not shown),6.92
20,Cc1[nH]c(C)c(S(=O)(=O)N2CCN(c3cccc(C(F)(F)F)c3)CC2)c1C(=O)N1CCCC1,-28.4
21,Cc1sc2ncnc(SC(C)C(=O)N3c4ccccc4Sc4ccccc43)c2c1C (stereo not shown),1.49
22,CCCCCCC1CC(CSc2ncn[nH]2)OC1=O (stereo not shown),-28.2

row,SMILES,"hERG current change (%, negative = inhibition) at 10uM [%]"
1,COc1ccc(NC(=O)N2CCN(c3ccc([N+](=O)[O-])cc3)CC2)cc1,-36.9
2,COC(=O)c1nc(Cl)c(Cl)c(N)c1Cl,-17.5
3,COc1ccc(NC(=O)C2CC(c3c(F)cccc3Cl)=NO2)cc1 (stereo not shown),4.16
4,COC(=O)CSc1nnc(CNc2ccc(OC)cc2)n1C,7.3
5,CCN1C(Nc2ccccc2)=NC[C@@H]1CC(C)C,3.75
6,O=C(NC1CCCCCC1)c1cc2n(n1)C(C(F)(F)F)CC(c1ccco1)N2 (stereo not shown),-6.84
7,CCc1ccc(/C=C2/SC(=S)N(CCC(=O)NCCCN3CCOCC3)C2=O)cc1,-23.5
8,Cc1cc(=O)oc(C)c1C(=O)Nc1ccc2ncccc2c1,-18.6
9,COc1ccc2cc(CN(CCCN3CCOCC3)Cc3nnnn3C3CCCCC3)c(=O)[nH]c2c1,-26.5
10,CC(=O)C1=C(C)NC(=O)NC1c1cccc(O)c1 (stereo not shown),23.8
11,CCOc1ccc(Br)cc1S(=O)(=O)Nc1cccc(S(=O)(=O)N(CC)CC)c1,-4.53
12,COc1ccc(CCCc2nc3ccccc3[nH]2)cc1,-21.3
13,Cc1nc2sc(C(c3ccc(Cl)cc3)N3CCN(C(=O)c4ccco4)CC3)c(O)n2n1 (stereo not shown),-60.1
14,COC(=O)C1=C(C(=O)OC)[C@@H]2N(C)c3ccccc3[C@@]23C[C@@H](CO)N(C(=O)NCCBr)C3=N1,-14.7
15,Cc1[nH]c2ccc(C(=O)N3CCN(Cc4ccccc4)CC3)cc2c1C,-35.1
16,COc1ccc(-c2[nH]ncc2CN(C)C(C)c2ccon2)c(OC)c1 (stereo not shown),20.6
17,COc1ccccc1OCC(O)Cn1c(=N)n(Cc2ccccc2)c2ccccc21.Cl (stereo not shown),-71
18,Cc1ccc(-n2c(O)c(/C=N/Nc3ccccc3)c(=O)[nH]c2=O)cc1C,2.86
19,COc1ccc(OC)c(C(=O)NC(CC(N)=O)c2ccc(NC(C)C)c([N+](=O)[O-])c2)c1 (stereo not shown),-38.2
